Experimental data from the supplement of paper PMC3334620.
Over roughly 33,000 sequences, “E-score (-0.5 to 0.5)” has its median near -0.012; the highest 2% begin near 0.27. Some of the results follow.

These sequences were tested against T1, Vhr1 (UniProt P40522) (assay: PBM E-score (8-mer binding enrichment) (E-score (-0.5 to 0.5)); higher = stronger / more preferred TF binding; most listed sequences are background and not binding sites). Settings: protein concentration: 200 nM; construct: GST-full length.
T1 sequence: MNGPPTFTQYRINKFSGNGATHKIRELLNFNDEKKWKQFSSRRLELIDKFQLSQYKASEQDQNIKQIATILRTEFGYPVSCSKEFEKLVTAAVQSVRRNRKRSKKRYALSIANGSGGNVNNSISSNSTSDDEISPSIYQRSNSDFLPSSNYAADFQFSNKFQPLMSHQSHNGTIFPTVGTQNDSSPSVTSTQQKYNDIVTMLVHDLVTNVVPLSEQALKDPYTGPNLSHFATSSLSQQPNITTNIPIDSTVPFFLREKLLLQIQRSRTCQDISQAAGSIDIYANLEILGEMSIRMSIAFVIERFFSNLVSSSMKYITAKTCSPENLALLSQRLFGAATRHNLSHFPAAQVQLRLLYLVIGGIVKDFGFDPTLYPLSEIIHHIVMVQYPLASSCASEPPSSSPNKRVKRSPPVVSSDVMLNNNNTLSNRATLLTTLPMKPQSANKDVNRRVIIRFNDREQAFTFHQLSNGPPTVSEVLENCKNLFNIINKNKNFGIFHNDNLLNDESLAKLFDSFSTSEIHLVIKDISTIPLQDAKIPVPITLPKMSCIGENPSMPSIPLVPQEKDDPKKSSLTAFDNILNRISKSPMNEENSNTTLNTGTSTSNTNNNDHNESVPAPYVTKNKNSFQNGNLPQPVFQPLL
Method in brief: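 Detection of bound protein used fluorescent anti-GST, with scans normalised by masliner. The proteins were GST-tagged yeast transcription factors applied at about 100-200 nM to universal all-10-mer Agilent arrays made double-stranded by primer extension. Each ungapped eight-base word, pooled with its reverse complement, was scored with an E-score from the Universal PBM Analysis Suite.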

In order of rising “PBM E-score” value:
1. CCCCCTAA  -0.331
2. CTTTCGAA  -0.312
3. ACTTTGAA  -0.298
4. AATTCCCA  -0.294
5. CAGTAAGG  -0.259
6. CGTACGGC  -0.258
7. CTGCTAAA  -0.251
8. GCGGAAAA  -0.247
9. CTTCCTCC  -0.247
10. ACGAAAAA  -0.246
11. ACGGCTAG  -0.243
12. CTTAAAAA  -0.231
13. AGAACTTA  -0.226
14. CAAGGGAC  -0.219
15. AAGTCTAG  -0.213
16. ACACGAGG  -0.197
17. CCTTCTCG  -0.186
18. AAAGCTAG  -0.179
19. TGCAAGAA  -0.177
20. CCTCTATA  -0.174
21. ATCGTTCC  -0.169
22. CGCTCGAC  -0.167
23. GCAAGGAC  -0.152
24. AAAAAGCA  -0.147
25. GAAATCTC  -0.143
26. CTGTTCCA  -0.141
27. GGACCGCC  -0.14
28. GTTAGAGA  -0.136
29. GACGGCCC  -0.134
30. ACCTAGGG  -0.129
31. ACGTTAAC  -0.127
32. AAACTAGA  -0.127
33. GGCCGTCA  -0.124
34. AGGATCTC  -0.119
35. TCTGCACA  -0.113
36. ACCGTGCT  -0.11
37. AAGCAGGC  -0.109
38. CTTAGATC  -0.106
39. CACGTCAC  -0.102
40. AAACGTAA  -0.0983
41. CTCTACTC  -0.0973
42. ATAAGGGC  -0.0967
43. CGCAGGCC  -0.0947
44. CGGCTAAG  -0.093
45. GGATCGGA  -0.0891
46. ACGTCGGA  -0.0862
47. CAGAGAGG  -0.086
48. CGAAGCCC  -0.0753
49. CTAAGCTA  -0.0723
50. CTGCACAA  -0.0636
51. AGAAGGGG  -0.0634
52. CCCGAGAA  -0.0627
53. GTCTCCCA  -0.0624
54. CCAGAGGA  -0.0619
55. CAGCCAAG  -0.0618
56. CGAAATCG  -0.0613
57. ATATCACA  -0.0613
58. CGTGGCGC  -0.0549
59. CCGAGTTA  -0.053
60. CTGTGCCA  -0.0519
61. AGGTGACG  -0.0476
62. CGCTCCCG  -0.0474
63. GAATGGAA  -0.0445
64. AAACGAAT  -0.044
65. GACTGTTA  -0.0431
66. AGTTACAT  -0.043
67. AGCGTCTG  -0.0399
68. CGGCCAGA  -0.0329
69. CTGATATC  -0.0297
70. CCTGATGC  -0.0265
71. GTGCACGA  -0.0234
72. CCCCGCAG  -0.0226
73. TCGGCACA  -0.0219
74. GGGTCCCA  -0.021
75. ATTGAACA  -0.0184
76. AGGTTCAG  -0.0158
77. GATGGTCA  -0.0152
78. AACGCGTG  -0.0141
79. ATTGTCGC  -0.012
80. GAAACGGA  -0.0114
81. AACTGGGG  -0.0107
82. AGGCAAAC  -0.00986
83. GCACCTGA  -0.00933
84. AAGACAAC  -0.00534
85. AATCTAAA  0.00099
86. ACCCTTAG  0.00115
87. AGAACGAC  0.00162
88. GGGATCCA  0.0018
89. CGTGTAGA  0.00263
90. ACGCTCTG  0.00722
91. GGAGCTGA  0.00933
92. AAATCAGG  0.0111
93. ATGTAACG  0.012
94. ACCAACCC  0.0128
95. ATTTGACC  0.0143
96. GCGGGACA  0.0204
97. AGATGGTA  0.0225
98. AGAATTAT  0.0241
99. CACGGGTA  0.0278
100. ATGGGTGC  0.0292
101. ATACTACC  0.0318
102. ACAGCTGA  0.0324
103. ATAGGTAC  0.0378
104. CCGCCTCA  0.039
105. CATGGACG  0.0438
106. GTCGAACA  0.0448
107. ACTTAGCG  0.045
108. CTGAACAA  0.0457
109. ATTTGATG  0.0458
110. AGACCTCA  0.0485
111. AAAGACAC  0.0487
112. ACAGAACT  0.0499
113. CATCCTTA  0.0512
114. AAGCAGTG  0.055
115. ACATTCAC  0.0558
116. GGCCACAA  0.0566
117. AAAGGATG  0.0615
118. CCTGCGCG  0.0616
119. ATACCCAG  0.062
120. ACTGCTCC  0.0624
121. GAGTTCAC  0.0628
122. CCTCCGAG  0.0635
123. ACCCTGAT  0.0649
124. AACGATGG  0.0685
125. TCGGATCA  0.0704
126. AACCCATT  0.0791
127. CTCTTGGA  0.0822
128. ACACAGTA  0.0872
129. CCAGGGAG  0.09
130. CAACCGAC  0.0964
131. AGTATTGG  0.1
132. CCACATAG  0.102
133. ATATAACG  0.105
134. CCGAACGC  0.106
135. AGATGAGA  0.11
136. CACCGCTC  0.112
137. TGCGAGCA  0.116
138. CGCGCGTC  0.117
139. CAATATAA  0.12
140. CTTCGTGA  0.121
141. ACCCGGCT  0.127
142. CTTAGCGC  0.128
143. AGCACACA  0.131
144. CCGGCACG  0.132
145. ACTGTATG  0.132
146. AAGGGTAA  0.135
147. TCACTACA  0.141
148. CTCCTGAC  0.142
149. ATCACCAC  0.143
150. AGTCGGGC  0.145
151. AAACACTC  0.15
152. CTCGAGGC  0.153
153. AGGAGTCC  0.165
154. TACCAATA  0.171
155. CCACCATA  0.176
156. CGCGCCGC  0.177
157. ATATGAGG  0.178
158. TATTCAGA  0.178
159. ATCATCCG  0.182
160. AGACCATG  0.188
161. CGCAGCGA  0.201
162. CAGGTATG  0.205
163. CGAAGATA  0.214
164. CAGTAGTC  0.216
165. ATTGACTA  0.236
166. AAAGTCAC  0.246
167. GGAGTGAC  0.266
168. AAGAGTCG  0.281
169. AAGTCACC  0.301
170. ACCATGAC  0.307
171. ATGATATG  0.315
172. GGTGACTA  0.44
